Measured values: the RNAGym collection of RNA variant scans (doi:10.1093/nar/gkz1192)
The source gives no read counts; variants with many changes may rest on few reads.

B1: CPEB3 Ribozyme (parent)
chain: UAACAGGGGGCCACAGCAGAAGCGUUCACGUCGCAGCCCCUGUCAGAUUCUGGUGAAUCUGCGAAUUCUGCUGUAUAUCUC

Variants of: B1
Assay: self-cleavage, relative activity (ratio to wild type); higher = more cleavage; in vitro, sequencing
How it was run: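 CPEB3 self-cleaving ribozyme mutant libraries were made by rounds of error-prone PCR, barcoded, and transcribed in vitro with T7 RNA polymerase for 5 hours at 37°C. Cleavage occurred during transcription and a 15 min DNase I step before EDTA stop. RNAs were reverse transcribed with template switching and Illumina-sequenced, with DNA sequencing mapping barcodes to variants. Relative activity is the variant's cleaved/total read fraction divided by wild type's (minimum 5 reads), averaged across three batches.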

Row | Variant | self-cleavage
1 | UAACAGGGGCCCACAGCGGAAGCGUUCACAUCGCAGCCCCUGUCAGAUUCUGGUGAAUCUGCGAAUUCUGCUGUAUAUCUC [G10C A18G G30A] | 0.39
2 | UAACAGGGGCCCACAGCUGGAGCGUUCACGUCGCAGCCCCUGUCGGAUUCUGGCGAAUCUGCGAAUUCUGCUGUAUAUCUC [G10C A18U A20G A45G U54C] | 0.37
3 | UAACAGGGGCCCACAGCUGAAGCGUCCACGUCGCAGCCCCUGUCAGAUUCUGGUGAAUCUGCGAAAUCUGCUGUAUAUCUC [G10C A18U U26C U66A] | 0.06
4 | UAACAGGGGCCCACAGCAGGAGCGCUCACGUCGCAGCCCCCGUCAGACUCUGGUGAAUCUGCGAAUUCUGCUGUAUAUCUC [G10C A20G U25C U41C U48C] | 0.21
5 | UAACAGGGGCCCACAGCAGGAGCGUUCACGUCGCAGCCCCUGUCAGAUUCUGGUGAAUCUGCGAAUCCUGCUGUAUAUCUC [G10C A20G U67C] | 0.07
6 | UAACAGGGGCCCACAGCAGUAGCCUUCACGUCGCAGCCCCUGUCAGAUUCUGGUGAAUCUGCGAAUUCUGCUGUAUAUCUC [G10C A20U G24C] | 0.06
7 | UAACAGGGGCCCACAGCAGUAGCGUUCACGGCGCAGCCCCUGUCAGAUCCUGGUGAAUCUGCGAAUUCUGCUGUAUAUCUC [G10C A20U U31G U49C] | 0.06
8 | UAACAGGGGCCCACAGCAGAGGCGUUCAGGUCGCGGCCCCUGUCAGAUUCUGGUGAAUCUGCGAAUUCUGCUGUAUAUCUC [G10C A21G C29G A35G] | 0.05
9 | UAACAGGGGCCCACAGCAGAGGCGUACUCAUCGCAGCCCCUGUCAGAUUCAGGUGAAACUGCGAAUUCUGCUGUAUAUCUC [G10C A21G U26A A28U G30A U51A U58A] | 0.05
10 | UAACAGGGGCCCACAGCAGAGGCGUUCACGUCGCAGCCCCUGUCAGAUCCUGGUGAUUCUGCGGAUUCAGCUGUAUAUCUC [G10C A21G U49C A57U A64G U69A] | 0.08
11 | UAACAGGGGCCCACAGCAGAUGCGUUCACGUCGCAGCCCCUGUCAGAUUCUGGUGAAUCUGCGAACUCUGCUGUAUAUCUC [G10C A21U U66C] | 0.38
12 | UAACAGGGGCCCACAGCAGAAGCGUUCCCGUCGCAGCCCCUGUCAGUCUCUGGUGAAUCUGCGAAUUCUGCUGUAUAUCUC [G10C A28C A47U U48C] | 0.15
13 | UAACAGGGGCCCACAGCAGAAGCGUUCGCGUCGCAGCCCCUGUCGGAUUCAGGUGGAUCUGCGAAUUCUGCCGUAUAUCUC [G10C A28G A45G U51A A56G U72C] | 0.05
14 | UAACAGGGGCCCACAGCAGAAGCGUUCGCGUCGCAGCCCCUGUCAAAUUCUGAUGAAUCUGCGAAUUCUGCUGUAUAUCUC [G10C A28G G46A G53A] | 0.07
15 | UAACAGGGGCCCACAGCAGAAGCGUUCGCGUCGCAGCCCCUGACAGACUCUGGUGGAUCUGCGAAUUCUGCUGUAUAUCUA [G10C A28G U43A U48C A56G C81A] | 0.15
16 | UAACAGGGGCCCACAGCAGAAGCGUUCGCGUCGCAGCCCCUGUCAGAUUCUGGCGAAUCCGCGAAUUCUGCUGUAUAUCUC [G10C A28G U54C U60C] | 0.09
17 | UAACAGGGGCCCACAGCAGAAGCGUUCGCGUCGCAGCCCCUGUCAGAUUCUGGUGAAUCAGCGAAUUCUGCUGUAUAUCUC [G10C A28G U60A] | 0.17

Row | Variant | self-cleavage
18 | UAACAGGGGCCCACAGCAGAAGCGUUCACGUCGCGGCCCCUGUCUGAUUCUGGUGAAUCUGCGGAUUCUGCUGCAUAUCUC [G10C A35G A45U A64G U74C] | 0.23
19 | UAACAGGGGCCCACAGCAGAAGCGUUCACGUCGCGGCCCCUGUCAGAUUCUGGUGAUUCUGCGAAUUCUGCUGUAUAUCUC [G10C A35G A57U] | 0.12
20 | UAACAGGGGCCCACAGCAGAAGCGUUCACGUCGCAGCCCCUGUCCGAUUCUGGUGAAUCUGCGAACUCUGCUGUAUAUCUC [G10C A45C U66C] | 0.13
21 | UAACAGGGGCCCACAGCAGAAGCGUUCACGUCGCAGCCCCUGUCAGAUUCUGGUGAGUCUGCGAGUUCUGCUGUAAAUCUC [G10C A57G A65G U76A] | 0.04
22 | UAACAGGGGCCCACAGCAGAAGCGUUCACGUCGCAGCCCCUGUCAGAUUCUGGUGAGACUGCGGAUUCUGCUGUAUAUCUC [G10C A57G U58A A64G] | 0.1
23 | UAACAGGGGCCUACAGCAGAAGCGUUCACGUCGCAGCCCCUGUCAGAUUCUGGUGAAUCUGCGAAUCCUGCUGUAUAUCUC [G10C C12U U67C] | 0.22
24 | UAACAGGGGCCCAGAGCAGGAGCGUUCACGUCGCAGCCCCUGUCAGAUUCAUGUGGAUCUGCGAAUUCUGCUGUAUAUCUC [G10C C14G A20G U51A G52U A56G] | 0.22
25 | UAACAGGGGCCCAGAGCAGGAGCGUUCACGUCGCAGCCCCUGUCAGAUUCAUGUGAAUCUGCGAAUUCUACUGUAUAUCUC [G10C C14G A20G U51A G52U G70A] | 0.05
26 | UAACAGGGGCCCACAGUAGAAGCGUUCACGUCGCAGCCCCCGUCAGAUUCUGGUGAAUCUGCGAAUUCUGCUGUAUAUCCC [G10C C17U U41C U80C] | 0.1
27 | UAACAGGGGCCCACAGUAGAAGCGUUCACGUCGCAGCCCCUGUCAGAUUCUGGCGAAUCUGCGAAUUCUGCUGUAUAUCUC [G10C C17U U54C] | 0.27
28 | UAACAGGGGCCCACAGCAGAAGCGUUUACGUCGCAGCCCCGGUCAGAUUCGGGUGAGUCUGCGAAUUCUGCUGUAUAUCUC [G10C C27U U41G U51G A57G] | 0.05
29 | UAACAGGGGCCCACAGCAGAAGCGUUCACGUCGCAGUCCCUGUCAGAUUCUGGUGAAUCUGCGAAUCCUGCUGCAUUUCUC [G10C C37U U67C U74C A77U] | 0.09
30 | UAACAGGGGCCCACAACAGAAGCGUUCACGUCGCAGCCCCUGUCAGAUUCUGGUGAAUCUGCGCAUCCUGCUGUAUAUCUC [G10C G16A A64C U67C] | 0.05
31 | UAACAGGGGCCCACAACAGAAGCGUUCACGUCGCAGCCCCCGUCAGAAUCUGGUGAAUCUGCGAAUUCUGCUGUAUAUCUC [G10C G16A U41C U48A] | 0.07
32 | UAACAGGGGCCCACAGCAUAAGCGUUCACGUCGCAGCCCCUGUCUGAUUCUGGUGAAUCUGCGAGUUCUGCUGUAUAUCUC [G10C G19U A45U A65G] | 0.05
33 | UAACAGGGGCCCACAGCAGAAGCCUUCACGUCGCAUCCCCUGUCAGAUUCUGGUGAAUCUGCGAAUUCUUCUGUAUAUCUC [G10C G24C G36U G70U] | 0.11
34 | UAACAGGGGCCCACAGCAGAAGCGUUCACGUCGCAUCCCCUGUCAGAUUCUGGUGGGCCUGCGAAUUCUGCUGUAUAUCUC [G10C G36U A56G A57G U58C] | 0.04
